Data published in article PMC3462795.
Positions count from the first letter of the chain named. These are yes or no findings as the source states them, for the method shown. Binding seen in cells or lysates may run through a third protein. Some entries that bind do so weakly or less than the wild type. For some of these results: Tags and fused reporters may be left off the sequences shown.

Sequences of proteins named here, by UniProt entry; tags and fusion partners are left off.
UniProt P63010: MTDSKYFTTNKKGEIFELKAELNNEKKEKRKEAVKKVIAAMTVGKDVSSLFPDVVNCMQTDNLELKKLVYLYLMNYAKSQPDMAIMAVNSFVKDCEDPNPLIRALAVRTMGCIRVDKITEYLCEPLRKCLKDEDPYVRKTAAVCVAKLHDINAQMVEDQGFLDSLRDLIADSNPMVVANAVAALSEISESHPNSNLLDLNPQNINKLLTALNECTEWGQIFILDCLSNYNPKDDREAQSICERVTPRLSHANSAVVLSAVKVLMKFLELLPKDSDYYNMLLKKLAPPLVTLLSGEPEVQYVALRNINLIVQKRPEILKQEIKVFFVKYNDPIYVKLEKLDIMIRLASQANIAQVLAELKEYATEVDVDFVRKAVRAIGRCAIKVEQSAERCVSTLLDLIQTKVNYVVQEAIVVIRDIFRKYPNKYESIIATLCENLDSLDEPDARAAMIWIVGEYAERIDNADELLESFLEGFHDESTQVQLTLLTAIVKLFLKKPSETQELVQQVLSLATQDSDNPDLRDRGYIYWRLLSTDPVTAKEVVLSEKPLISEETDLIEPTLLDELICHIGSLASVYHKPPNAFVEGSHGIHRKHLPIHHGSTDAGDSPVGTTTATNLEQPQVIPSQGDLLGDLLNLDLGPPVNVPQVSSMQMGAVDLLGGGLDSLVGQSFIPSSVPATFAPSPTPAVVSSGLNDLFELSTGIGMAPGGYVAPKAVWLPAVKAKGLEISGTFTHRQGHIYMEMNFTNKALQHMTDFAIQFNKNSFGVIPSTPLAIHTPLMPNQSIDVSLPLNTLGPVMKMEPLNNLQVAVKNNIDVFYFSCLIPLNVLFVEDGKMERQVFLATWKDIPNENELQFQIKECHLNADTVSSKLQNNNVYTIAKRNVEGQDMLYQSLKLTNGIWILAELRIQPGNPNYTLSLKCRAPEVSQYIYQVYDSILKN
UniProt O43747: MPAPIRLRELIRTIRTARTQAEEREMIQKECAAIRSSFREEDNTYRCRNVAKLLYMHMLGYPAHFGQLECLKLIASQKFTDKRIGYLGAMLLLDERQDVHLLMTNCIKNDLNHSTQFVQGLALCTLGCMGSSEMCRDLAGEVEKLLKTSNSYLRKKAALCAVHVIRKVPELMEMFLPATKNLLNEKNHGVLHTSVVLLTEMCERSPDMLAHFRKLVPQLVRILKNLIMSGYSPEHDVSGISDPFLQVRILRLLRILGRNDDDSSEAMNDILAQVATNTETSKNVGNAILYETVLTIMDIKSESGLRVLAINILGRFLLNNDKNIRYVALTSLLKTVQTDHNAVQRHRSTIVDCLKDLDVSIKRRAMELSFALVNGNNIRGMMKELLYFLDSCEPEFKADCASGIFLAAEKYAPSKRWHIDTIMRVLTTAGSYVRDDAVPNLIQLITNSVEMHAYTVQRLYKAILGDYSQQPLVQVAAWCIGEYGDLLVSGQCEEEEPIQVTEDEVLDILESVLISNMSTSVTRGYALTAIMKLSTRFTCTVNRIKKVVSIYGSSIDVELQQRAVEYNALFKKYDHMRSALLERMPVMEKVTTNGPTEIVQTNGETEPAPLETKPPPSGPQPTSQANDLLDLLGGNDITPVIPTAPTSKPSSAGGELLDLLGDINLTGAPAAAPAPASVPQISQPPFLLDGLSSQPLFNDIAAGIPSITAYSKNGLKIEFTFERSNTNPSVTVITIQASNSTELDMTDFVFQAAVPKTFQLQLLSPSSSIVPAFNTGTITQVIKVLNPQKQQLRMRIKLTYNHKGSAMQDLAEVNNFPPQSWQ

Columns and labels:
[1] = biological target: T1, actopaxin (endogenous) (human (endogenous in U2OS)) (UniProt Q9NVD7); experiment: co-IP; endogenous proteins from U2OS cells spread on collagen for 45 and 120 minutes; 20 mM Tris/HCl pH 7.6, 0.5% NP-40, 100 mM NaCl, 10% glycerol, 1 mM MgCl2; primary antibody 2 hours at 4°C, protein A/G beads, Western blot
T1 sequence: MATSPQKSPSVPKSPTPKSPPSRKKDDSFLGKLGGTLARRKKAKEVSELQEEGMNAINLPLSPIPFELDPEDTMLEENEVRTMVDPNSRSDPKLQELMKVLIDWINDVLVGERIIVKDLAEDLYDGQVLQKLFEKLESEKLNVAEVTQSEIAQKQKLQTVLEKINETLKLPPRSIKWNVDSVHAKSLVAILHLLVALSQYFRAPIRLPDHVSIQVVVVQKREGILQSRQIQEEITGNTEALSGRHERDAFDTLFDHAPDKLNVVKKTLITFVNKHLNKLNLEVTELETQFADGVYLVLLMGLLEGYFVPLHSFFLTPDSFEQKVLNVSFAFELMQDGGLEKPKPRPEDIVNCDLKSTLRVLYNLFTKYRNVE

[2] = biological target: T2, GFP-actopaxin 1–95 (UniProt Q9HB97); experiment: co-IP; immunoprecipitation of GFP from U2OS cells expressing GFP empty vector or GFP-actopaxin 1–95; blot for β2-adaptin
T2 sequence: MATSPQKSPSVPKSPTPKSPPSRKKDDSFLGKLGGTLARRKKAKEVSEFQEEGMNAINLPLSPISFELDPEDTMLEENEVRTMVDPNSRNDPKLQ

[3] = biological target: T3, GST-actopaxin (full-length) (UniProt Q9HB97); experiment: pull-down; GST fusion proteins incubated with clarified U2OS lysate (20 mM Tris/HCl pH 7.6, 50 mM NaCl, 1% NP-40, 10% glycerol), 2 hours at 4°C, washed 3x, Western blot; only the target purified
T3 sequence: T1 sequence with L49F, P65S, S90N, T167A, S186N

[4] = biological target: T4, GST-actopaxin 1-95 (UniProt Q9HB97); experiment: as above
T4 sequence: T2 sequence

[5] = biological target: T5, GST-actopaxin 96-372 (UniProt Q9HB97); experiment: as above
T5 sequence: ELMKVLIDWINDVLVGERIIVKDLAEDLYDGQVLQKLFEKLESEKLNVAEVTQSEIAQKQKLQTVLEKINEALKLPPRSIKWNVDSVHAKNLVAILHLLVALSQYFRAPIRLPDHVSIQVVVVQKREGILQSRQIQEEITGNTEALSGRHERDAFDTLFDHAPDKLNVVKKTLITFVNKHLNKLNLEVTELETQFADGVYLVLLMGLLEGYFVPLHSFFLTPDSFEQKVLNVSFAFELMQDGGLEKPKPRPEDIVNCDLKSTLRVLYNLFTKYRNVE

[6] = biological target: T6, actopaxin (in vitro binding experiment) (UniProt Q9HB97); experiment: pull-down; in vitro transcription/translation pulldown; which partner was translated in vitro and which was the bait is not told
T6 sequence: T1 sequence with L49F, P65S, S90N, T167A, S186N

| binding [1] | binding [2] | binding [3] | binding [4] | binding [5] | binding [6] | Substance |
| --- | --- | --- | --- | --- | --- | --- |
| binds | binds | binds | binds | no binding |  | β2-adaptin (endogenous) (from UniProt P63010 1-937) |
|  |  | no binding |  |  |  | γ-adaptin (endogenous) (from UniProt O43747 1-822) |
|  |  |  |  |  | binds | β2-adaptin (in vitro binding experiment) (from UniProt P63010 1-937) |
